Test results from the supplement of paper PMC4967469.

Assays:
Experiment in all cases: Viability of human cancer cell lines after 72 h of drug (GDSC screen)
[1] = compound: C/C=C(/C)C(=O)O[C@H]1C(C)=C2[C@H]([C@@H]1OC(=O)CCCCCCC)[C@@](C)(OC(C)=O)C[C@H](OC(=O)CCC)[C@@]1(O)[C@H]2OC(=O)[C@@]1(C)O [Thapsigargin]; conditions: top dose 0.512 µM; top dose inferred
Method: (§1)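 Human cancer cell lines in 384-well plates, medium with 10% serum, drug for 72 h over a 256-fold dose range (nine 2-fold or five 4-fold steps up to the top dose). Adherent lines were fixed and stained with the nucleic acid dye Syto60, suspension lines read with resazurin; signal relative to control wells, capped at 0 and 100%. One two-parameter sigmoid per drug and line, fitted in a mixed model over all curves with the slope shared within a line.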

[2] = compound: C=CC(=O)Nc1cc(-n2c(=O)ccc3cnc4ccc(-c5cn[nH]c5)cc4c32)ccc1C [QL-X-138]; conditions: top dose 10.24 µM; top dose inferred
Method: as §1

[3] = compound: CCn1c(-c2nonc2N)nc2cnc(Oc3cccc(NC(=O)c4ccc(OCCN5CCOCC5)cc4)c3)cc21 [GSK269962A]; conditions: top dose 5 µM; screen: GDSC drug entry 1192; top dose inferred
Method: as §1

[4] = compound: COc1cc(N2CCC(O)CC2)ccc1Nc1cc(Nc2ccccc2S(=O)(=O)C(C)C)c2cc[nH]c2n1 [MPS-1-IN-1]; conditions: top dose 20 µM; top dose inferred
Method: as §1

[5] = compound: COc1cc(O)c2c(c1)/C=C/C[C@H](O)[C@H](O)C(=O)/C=C\C[C@H](C)OC2=O [(5Z)-7-Oxozeaenol]; conditions: top dose 10 µM; top dose inferred
Method: as §1

[6] = compound: COc1cc2ncnc(-n3nc(-c4ccccn4)nc3N)c2cc1OC [CP466722]; conditions: top dose 16 µM; top dose inferred
Method: as §1

[7] = compound: COc1nc(C)cnc1NS(=O)(=O)c1cccnc1-c1ccc(-c2nnco2)cc1 [Zibotentan]; conditions: top dose 20 µM; top dose inferred
Method: as §1

[8] = compound: C[C@]1(c2nc3c(C(N)=O)cccc3[nH]2)CCCN1 [ABT-888]; conditions: top dose 5 µM; top dose inferred
Method: as §1

[9] = compound: Cc1ccc(F)c(NC(=O)Nc2ccc(-c3cccc4[nH]nc(N)c34)cc2)c1 [ABT-869]; conditions: top dose 1.024 µM; top dose inferred
Method: as §1

[10] = compound: Cc1cnc(-c2cnc(NCCNc3ccc(C#N)cn3)nc2-c2ccc(Cl)cc2Cl)[nH]1 [CHIR-99021]
Method: as §1

[11] = compound: Nc1ccn([C@@H]2O[C@H](CO)[C@@H](O)[C@@H]2O)c(=O)n1 [Cytarabine]; conditions: top dose 2 µM
Method: as §1

[12] = compound: O=c1cc(-c2cccc3c2Sc2ccccc2S3)oc(N2CCOCC2)c1 [KU-55933]; conditions: top dose 10 µM
Method: as §1

[13] = top dose 2.56 µM, screen: GDSC drug entry 154
[14] = top dose 10 µM, screen: GDSC drug entry 1241, top dose inferred

Cell Line | AUC [1] | IC50 [1] | AUC [2] | IC50 [2] | AUC [3] | IC50 [3] | AUC [4] | IC50 [4] | AUC [5] | IC50 [5] | AUC [6] | IC50 [6] | AUC [7] | IC50 [7] | AUC [8] | IC50 [8] | AUC [9] | IC50 [9] | AUC [10, 13] | IC50 [10, 13] | AUC [10, 14] | IC50 [10, 14] | AUC [11] | IC50 [11] | AUC [12] | IC50 [12]
SCC-4 (head and neck, adherent) | 0.363 | 0.0124 µM | 0.931 | > 10.2 µM | 0.942 | > 5 µM | 0.95 | > 20 µM | 0.831 | 8.06 µM | 0.978 | > 16 µM | 0.983 | > 20 µM | 0.966 | > 5 µM | 0.978 | > 1.02 µM | 0.984 | > 2.56 µM | 0.975 | > 10 µM | 0.751 | 0.767 µM | – | –
SW1990 (pancreas, adherent) | 0.159 | 0.00227 µM | 0.908 | > 10.2 µM | 0.961 | > 5 µM | 0.985 | > 20 µM | 0.724 | 3.06 µM | 0.975 | > 16 µM | 0.985 | > 20 µM | 0.946 | > 5 µM | 0.978 | > 1.02 µM | 0.985 | > 2.56 µM | 0.983 | > 10 µM | 0.835 | 1.66 µM | – | –
U-266 (myeloma, semi-adherent) | – | – | – | – | 0.938 | > 5 µM | – | – | 0.74 | 3.95 µM | – | – | – | – | 0.968 | > 5 µM | – | – | – | – | – | – | 0.929 | > 2 µM | 0.982 | > 10 µM
VMRC-MELG (melanoma, adherent) | 0.387 | 0.0154 µM | 0.972 | > 10.2 µM | 0.988 | > 5 µM | 0.921 | > 20 µM | 0.848 | 7.95 µM | 0.952 | > 16 µM | 0.987 | > 20 µM | 0.966 | > 5 µM | 0.979 | > 1.02 µM | 0.973 | > 2.56 µM | 0.852 | 8.33 µM | 0.932 | > 2 µM | – | –
WM278 (melanoma, adherent) | 0.246 | 0.00532 µM | 0.984 | > 10.2 µM | 0.895 | > 5 µM | 0.857 | 19.6 µM | 0.511 | 0.672 µM | 0.872 | > 16 µM | 0.975 | > 20 µM | 0.984 | > 5 µM | 0.98 | > 1.02 µM | 0.977 | > 2.56 µM | 0.779 | 4.63 µM | 0.761 | 0.797 µM | – | –

A lower IC50 marks a more sensitive line; a limit (>, <) means that the fit lies beyond the doses tested. AUC is the area under the same curve over the 256-fold range up to the top dose, as a fraction; it is 1 without any effect and falls as sensitivity rises. For some of these results: The top dose, if marked as inferred, was derived from the fitted curves, not read from the paper. For some of these results: Drugs with an entry number were screened twice under separate entries, and the two screens often disagree.
